Target: T1, MYO10-TPRN^BAIT (taperin fused to MYO10^HMM) (mouse, UniProt A2AI08 1-749)
T1 sequence: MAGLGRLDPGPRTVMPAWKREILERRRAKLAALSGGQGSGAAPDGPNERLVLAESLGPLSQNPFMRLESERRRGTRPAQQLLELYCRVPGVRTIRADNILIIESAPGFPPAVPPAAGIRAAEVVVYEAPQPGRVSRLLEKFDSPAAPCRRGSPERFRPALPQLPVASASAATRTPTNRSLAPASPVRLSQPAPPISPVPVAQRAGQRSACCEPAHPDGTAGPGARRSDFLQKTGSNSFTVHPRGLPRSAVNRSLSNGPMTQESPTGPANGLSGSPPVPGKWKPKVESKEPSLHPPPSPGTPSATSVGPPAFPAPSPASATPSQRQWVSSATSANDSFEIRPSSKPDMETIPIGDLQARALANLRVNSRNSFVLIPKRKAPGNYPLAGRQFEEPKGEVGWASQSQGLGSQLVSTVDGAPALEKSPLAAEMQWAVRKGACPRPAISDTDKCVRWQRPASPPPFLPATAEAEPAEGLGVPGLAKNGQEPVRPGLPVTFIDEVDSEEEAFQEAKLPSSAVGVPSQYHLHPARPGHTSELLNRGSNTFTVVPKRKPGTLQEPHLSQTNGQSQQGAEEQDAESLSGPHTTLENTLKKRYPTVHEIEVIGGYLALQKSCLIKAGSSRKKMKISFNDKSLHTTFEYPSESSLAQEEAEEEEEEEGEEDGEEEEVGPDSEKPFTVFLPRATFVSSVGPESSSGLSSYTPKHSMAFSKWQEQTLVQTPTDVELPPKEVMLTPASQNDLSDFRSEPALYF
Assay: NanoSPD

B1: PPP1CC^PREY (natural protein)
chain: not shown
fold increase of prey fluorescence at filopodial tips against MYO10^(NO BAIT): 5.7 fold
